Among the data in PubChem BioAssay AID1745844 (Carcinogenic Potency Database (CPDB), 2022) are TD50 values, retold here.

Some entries of the source have several records that differ or are many. This is not the full list of results. An entry can have further records. The rule behind the calls is not given here. The values listed for one entry are repeats in other runs, samples, wells, individuals or studies. Marks in square brackets tell the records apart. A, B and so on number the origins entry by entry.

The data set has as its system rodent lifetime carcinogenesis bioassay, tumor incidence TD50. Kind of data set: chronic cancer bioassays in animals – CPDB, compiled studies (AID 1745844).

By TD50 is commonly meant the dose at which the toxic effect under study appears in half of the subjects. As to `CCOC(=O)c1ccc(N)cc1`, the TD50 result (rat, strain ACI, males, in feed, site: colorectum, lesion: papilloma, dosed 68 weeks, study length 68 weeks) was “inactive: 4250 mg/kg/day [sample A] and 466 mg/kg/day [sample B]”.

In the case of `CC(=O)Nc1nc(-c2ccc([N+](=O)[O-])o2)cs1`, the TD50 (rat, strain Sprague-Dawley, females, in feed, site: any site (literature study), lesion: several types, types named in the paper, dosed 46 weeks, study length 66 weeks) is 7.25 mg/kg/day [study A] and 22.8 mg/kg/day [study B] and 27.7 mg/kg/day [study C].

For `CCO`, the TD50 (rat, strain Sprague-Dawley, females, in drinking water, site: any site (literature study), lesion: benign tumor, dosed 104 weeks, study length 120 weeks) was 3150 mg/kg/day [study A] and 12100 mg/kg/day [study B].

Turning to `CC/C(=C(\c1ccccc1)c1ccc(OCCN(C)C)cc1)c1ccccc1`, under “rat, strain Charles River CD (Sprague-Dawley), females, by gavage, site: liver, lesion: hepatocellular adenoma, dosed 52 weeks, study length 52 weeks”, the TD50 was 1.68 mg/kg/day [study A] and 5.8 mg/kg/day [study B].

Regarding `CC(C)CCCCCCOC(=O)c1ccccc1C(=O)OCCCCCCC(C)C`, the TD50 reads like this: (rat, strain Fischer 344, females, in feed, site: liver, lesion: several types, types named in the paper, dosed 104 weeks, study length 104 weeks) 81300 mg/kg/day [study A] and 4570 mg/kg/day [study B]; (rat, strain Fischer 344, males, in feed, site: all sites, lesion: mononuclear-cell leukemia, dosed 104 weeks, study length 104 weeks) 266 mg/kg/day [study A] and 2100 mg/kg/day [study B]; (rat, strain Fischer 344, males, in feed, site: liver, lesion: several types, types named in the paper, dosed 104 weeks, study length 104 weeks) 9760 mg/kg/day [study A] and 1540 mg/kg/day [study B].

As to `ClC=C(Cl)Cl`, the TD50 is 4.6e+09 mg/kg/day [study A] and 2850 mg/kg/day [study B] (rat, strain Sprague-Dawley, females, inhaled, site: all sites, lesion: leukemia, dosed 104 weeks, study length 159 weeks); 6230 mg/kg/day [study A] and 1620 mg/kg/day [study B] (rat, strain Sprague-Dawley, females, inhaled, site: any site (literature study), lesion: malignant tumor, dosed 104 weeks, study length 159 weeks); 10800 mg/kg/day [study A] and 1940 mg/kg/day [study B] (rat, strain Sprague-Dawley, males, inhaled, site: any site (literature study), lesion: malignant tumor, dosed 104 weeks, study length 159 weeks); 1880 mg/kg/day [study A] and 428 mg/kg/day [study B] (rat, strain Sprague-Dawley, males, inhaled, site: any site (literature study), lesion: several types, types named in the paper, dosed 104 weeks, study length 159 weeks).

Take `CN(N=O)c1ncnc2nc[nH]c12`: under “mouse, strain Swiss CD-1, females, in drinking water, site: lung, lesion: one or several types, types not named, dosed 104 weeks, study length 104 weeks”, the TD50 is 909 mg/kg/day [sample A] and 17.4 mg/kg/day [sample B].

For `C=CCl`, the TD50 reads like this: (rat, strain Sprague-Dawley, females, inhaled, site: Zymbal's gland, lesion: carcinoma, dosed 52 weeks, study length 131 weeks) 3640 mg/kg/day [study A] and 44.6 mg/kg/day [study B]; (rat, strain Sprague-Dawley, females, inhaled, site: any site (literature study), lesion: several types, types named in the paper, dosed 52 weeks, study length 131 weeks) 2770 mg/kg/day [study A] and 1.09 mg/kg/day [study B]; (rat, strain Sprague-Dawley, females, inhaled, site: extrahepatic tissue, lesion: angioma, dosed 52 weeks, study length 131 weeks) 94900 mg/kg/day [study A] and 75.1 mg/kg/day [study B]; (rat, strain Sprague-Dawley, females, inhaled, site: liver, lesion: angioma, dosed 52 weeks, study length 131 weeks) 3140 mg/kg/day [study A] and 60.1 mg/kg/day [study B]; (rat, strain Sprague-Dawley, males, inhaled, site: Zymbal's gland, lesion: carcinoma, dosed 52 weeks, study length 123 weeks) 315 mg/kg/day [study A] and 63.3 mg/kg/day [study B]; (rat, strain Sprague-Dawley, males, inhaled, site: any site (literature study), lesion: several types, types named in the paper, dosed 52 weeks, study length 123 weeks) 66.2 mg/kg/day [study A] and 8.44 mg/kg/day [study B].

Consider `CCCC(Cl)CCCC(Cl)CCC(Cl)CCC(Cl)CCC(Cl)CCCC(Cl)CCC` (centres undefined), for which the TD50 was 5830 mg/kg/day [sample A, study A] and 170 mg/kg/day [sample B, study B] (mouse, strain B6C3F1, females, by gavage, site: any site (literature study), lesion: several types, types named in the paper, dosed 103 weeks, study length 104 weeks); 10500 mg/kg/day [sample A, study A] and 93.8 mg/kg/day [sample B, study B] (mouse, strain B6C3F1, females, by gavage, site: liver, lesion: hepatocellular adenoma + hepatocellular carcinoma + neoplastic nodule, dosed 103 weeks, study length 104 weeks); 10500 mg/kg/day [sample A, study A] and 93.8 mg/kg/day [sample B, study B] (mouse, strain B6C3F1, females, by gavage, site: liver, lesion: hepatocellular adenoma + hepatocellular carcinoma, dosed 103 weeks, study length 104 weeks); 16200 mg/kg/day [sample A, study A] and 105 mg/kg/day [sample B, study B] (mouse, strain B6C3F1, females, by gavage, site: liver, lesion: hepatocellular adenoma, dosed 103 weeks, study length 104 weeks); 14000 mg/kg/day [sample A, study A] and 596 mg/kg/day [sample B, study B] (mouse, strain B6C3F1, females, by gavage, site: liver, lesion: hepatocellular carcinoma, dosed 103 weeks, study length 104 weeks); 36400 mg/kg/day [sample A, study A] and 211 mg/kg/day [sample B, study B] (mouse, strain B6C3F1, males, by gavage, site: any site (literature study), lesion: several types, types named in the paper, dosed 103 weeks, study length 104 weeks). In addition, the TD50 was 12300 mg/kg/day [sample A, study A] and 143 mg/kg/day [sample B, study B] (mouse, strain B6C3F1, males, by gavage, site: liver, lesion: hepatocellular adenoma + hepatocellular carcinoma + neoplastic nodule, dosed 103 weeks, study length 104 weeks); 31100 mg/kg/day [sample A, study A] and 851 mg/kg/day [sample B, study B] (mouse, strain B6C3F1, males, by gavage, site: lung, lesion: alveolar/bronchiolar adenoma + alveolar/bronchiolar carcinoma, dosed 103 weeks, study length 104 weeks).

With `COP(=O)(OC)OC(=CCl)c1cc(Cl)c(Cl)cc1Cl`, the TD50 (mouse, strain B6C3F1, females, in feed, site: liver, lesion: hepatocellular adenoma, dosed 103 weeks, study length 103 weeks) is 65000 mg/kg/day [study A] and 21400 mg/kg/day [study B].

With `CNc1ccc(N(CCO)CCO)cc1[N+](=O)[O-]`, the TD50 (mouse, strain B6C3F1, females, in feed, site: liver, lesion: hepatocellular adenoma, dosed 91 weeks, study length 91 weeks) was 917 mg/kg/day [sample A, study A] and 287 mg/kg/day [sample B, study B] and 574 mg/kg/day [sample B, study C]; the TD50 (mouse, strain B6C3F1, females, in feed, site: liver, lesion: hepatocellular adenoma, dosed 100 weeks, study length 100 weeks) is 530 mg/kg/day [sample A, study A] and 185 mg/kg/day [sample B, study B] and 1300 mg/kg/day [sample B, study C].

In the case of `CN(C)N`, the TD50 reads like this: (mouse, strain Charles River CD1, females, in drinking water, site: all sites, lesion: hemangiosarcoma, dosed 104 weeks, study length 104 weeks) 328 mg/kg/day [study A] and 11.4 mg/kg/day [study B]; (mouse, strain Charles River CD1, females, in drinking water, site: liver, lesion: all vascular tumors, dosed 104 weeks, study length 104 weeks) 68.2 mg/kg/day [study A] and 11.8 mg/kg/day [study B]; (mouse, strain Charles River CD1, females, in drinking water, site: liver, lesion: hemangiosarcoma, dosed 104 weeks, study length 104 weeks) 54.9 mg/kg/day [study A] and 12.2 mg/kg/day [study B]; (mouse, strain Charles River CD1, females, in drinking water, site: lung, lesion: alveolar/bronchiolar adenoma, dosed 52 weeks, study length 52 weeks) “inactive: 28.5 mg/kg/day [study A] and 3.93 mg/kg/day [study B]”; (mouse, strain Charles River CD1, females, in drinking water, site: lung, lesion: alveolar/bronchiolar adenoma, dosed 104 weeks, study length 104 weeks) 6.46 mg/kg/day [study A] and 37.1 mg/kg/day [study B]; (mouse, strain Charles River CD1, females, in drinking water, site: lung, lesion: alveolar/bronchiolar carcinoma, dosed 104 weeks, study length 104 weeks) 23.3 mg/kg/day [study A] and 199 mg/kg/day [study B]. Also, the TD50 by setting is: (mouse, strain Charles River CD1, females, in drinking water, site: lung, lesion: several types, types named in the paper, dosed 104 weeks, study length 104 weeks) 4.12 mg/kg/day [study A] and 27 mg/kg/day [study B]; (mouse, strain Charles River CD1, males, in drinking water, site: all sites, lesion: hemangiosarcoma, dosed 104 weeks, study length 104 weeks) 26.7 mg/kg/day [study A] and 6.53 mg/kg/day [study B]; (mouse, strain Charles River CD1, males, in drinking water, site: liver, lesion: hemangiosarcoma, dosed 104 weeks, study length 104 weeks) 44.8 mg/kg/day [study A] and 6.88 mg/kg/day [study B]; (mouse, strain Charles River CD1, males, in drinking water, site: liver, lesion: hepatocellular adenoma, dosed 104 weeks, study length 104 weeks) 29.7 mg/kg/day [study A] and 140 mg/kg/day [study B]; (mouse, strain Charles River CD1, males, in drinking water, site: liver, lesion: several types, types named in the paper, dosed 104 weeks, study length 104 weeks) 7.22 mg/kg/day [study A] and 2.4e+07 mg/kg/day [study B]; (mouse, strain Charles River CD1, males, in drinking water, site: lung, lesion: alveolar/bronchiolar adenoma, dosed 104 weeks, study length 104 weeks) 116 mg/kg/day [study A] and 34.3 mg/kg/day [study B].

Take `CCCCOCCOCCOCc1cc2c(cc1CCC)OCO2`: the TD50 entry is “inactive: 1010 mg/kg/day [sample A, study B] and 265 mg/kg/day [sample B, study A]” (mouse, strain B6AKF1, females, oral dosing, site: any site (literature study), lesion: several types, types named in the paper, dosed 76 weeks, study length 76 weeks); “inactive: 93.1 mg/kg/day [sample A, study B] and 22.4 mg/kg/day [sample B, study A]” (mouse, strain B6C3F1, males, oral dosing, site: any site (literature study), lesion: several types, types named in the paper, dosed 76 weeks, study length 76 weeks).

Consider `Oc1ccccc1O`, for which, for the setting “rat, strain F344/DuCrj, males, in feed, site: stomach, glandular, lesion: adenocarcinoma, dosed 51 weeks, study length 52 weeks”, the TD50 was 257 mg/kg/day [study A] and 833 mg/kg/day [study B].
